About 190 (3.5%) of roughly 5,400 compounds showed an effect of 50% or more. The list shows a part of the results. Residues, ends and D or L forms follow the SMILES beside them. *: point of attachment. Cbz = O=C(OCc1ccccc1)*
test system: Vero-E6; assay: primary screen, phospholipidosis by LipidTOX staining; higher = more effect of the substance; conditions: 10 µM
Method: To measure drug-induced PLD in Vero-E6 cells, we used the HCS LipidTOX Red Phospholipidosis Detection Reagent (Invitrogen, #H34351), which is non-toxic to cell growth and remains well retained after aldehyde fixation. In this setup, compounds (at 10 μM concentration) and controls (amiodarone: 10 μM concentration; DMSO: 0.1 v/v %) were added to clear-bottom, 384-well plates (PhenoPlate 384-well, black, optically clear flat bottom, tissue-culture treated, Revvity #6057302) using the Echo Liquid Handler (Labcyte).

| Compound | result_ITMP [%] |
| --- | --- |
| O=c1oc(-c2ccc(C(F)(F)F)cc2)nn1Cc1cc(Cl)ccc1O | -3.61 |
| COc1ccc(S(=O)(=O)N2c3ccc(Cl)cc3[C@](O)(c3ccccc3Cl)[C@@H]2C(=O)N2CCC[C@H]2C(N)=O)cc1OC | -3.08 |
| C[N+](C)(CF)CCO | -5.63 |
| O=C1CCCN1CC#CCN1CCCC1 | 0.42 |
| CCN(CC)CCOc1ccc(/C(=C(\Cl)c2ccccc2)c2ccccc2)cc1 | 108 |
| O=S(=O)(c1ccccc1)c1cnc2c(N3CCNCC3)cccc2c1 | 39.6 |
| COc1ccc(-n2c(C)c([N+](=O)[O-])c3ccc(O)cc32)cc1 | -8.94 |
| CC(C)C[C@H](NC(=O)[C@H](CCc1ccccc1)NC(=O)CN1CCOCC1)C(=O)N[C@@H](Cc1ccccc1)C(=O)N[C@@H](CC(C)C)C(=O)[C@@]1(C)CO1 | 2.11 |
| CCc1cncnc1N1CCN(Cc2nc3cc(C(F)(F)F)ccc3[nH]2)CC1 | -0.72 |
| COc1ccc(C2(CNC(=O)c3ccc(NC(=O)c4ccco4)cc3)CCOCC2)cc1 | -3.05 |
| Cc1c(C(=O)NC2CCCCC2)sc2nc3ccc(N)cc3n12 | -5.2 |
| NC(=O)N/N=C/c1ccc([N+](=O)[O-])o1 | -3.1 |
| O=C(O[C@H]1CN2CCC1CC2)N1CCc2ccccc2[C@@H]1c1ccccc1 | 59.2 |
| CCOC(=O)c1ccc(OCCC2CCN(c3ccc(C)nn3)CC2)cc1 | -2.25 |
| N=C(N)NC(=N)N1CCOCC1 | -6.56 |
| C[C@H]1CN(Cc2ccc(CC(=O)N3CCC(Nc4cccc(F)c4)CC3)cc2)CCN1 | -0.99 |
| O=C(O)[C@H](Cc1ccc(Nc2nccc3ccncc23)cc1)NC1=C(Br)C(=O)C12CCCCC2 | -1.64 |
| CC(C)(C#N)c1ccc(N2C(=O)OCc3cnc4ccc(-c5cnc6ccccc6c5)cc4c32)cc1 | -10.5 |
| C[C@]12CCC(=O)C(O)=C1CCC1C2CC[C@]2(C)C(=O)CCC12 (stereo partly shown) | -1.78 |
| CCN(CC)Cc1ccc2cc(COC(=O)Nc3ccc(C(=O)NO)cc3)ccc2c1 | 24.4 |
| Cc1ncc(CSSCc2cnc(C)c(O)c2CO)c(CO)c1O | 4.33 |
| NC1=N[C@H]2[C@H](CCCCC(=O)O)SC[C@H]2N1 | -5.63 |

| Compound | result_ITMP [%] |
| --- | --- |
| CN(C)c1ccc(-c2nc3c(N4CCN(CC(=O)Nc5nccs5)CC4)c(Cl)cnc3[nH]2)cc1 | -3.31 |
| Fc1ccccc1-c1nc2ccn(Cc3ccc(-c4ccc(C(F)(F)F)cc4C(F)(F)F)nn3)cc-2n1 | -1.14 |
| COc1ccc(C[C@@H](C)[C@@H](C)Cc2ccc(OC)c(OC)c2)cc1OC | 6.63 |
| Oc1cccc(Nc2ccc(Nc3cccc(O)c3)nn2)c1 | -10.8 |
| CCOC(=O)[C@H](Cc1ccc([N+](=O)[O-])cc1)NC(=O)c1ccccc1 | -1.7 |
| CC(C)C[C@@H](C=O)NC(=O)[C@H](CC(C)C)NC(=O)[C@H](CC(C)C)NC(=O)OCc1ccccc1 (Cbz-Leu-Leu-Leu-aldehyde) | 5.65 |
| CC(C)n1cnc2c(C(=O)N[C@H]3CN4CCC3CC4)cc(Cl)cc21 | 11.8 |
| N#CCC1(n2cc(-c3ncnc4[nH]ccc34)cn2)CN(C2CCN(C(=O)c3ccnc(C(F)(F)F)c3F)CC2)C1 | 0.26 |
| OC[C@H]1O[C@@H](Oc2ccc(O)cc2)[C@H](O)[C@@H](O)[C@@H]1O | -7.03 |
| O=C(c1ccc(C(=O)N2CCC(N3CCCC3)CC2)c(Nc2ccccc2)c1)N1CCC(N2CCCC2)CC1 | 4.66 |
| O=Nc1ccc(O)c2ncccc12 | 6.47 |
| Nc1ccc(S(=O)(=O)c2ccc(N)cc2)cc1 | 3.12 |
| CN1c2c(nc(N)[nH]c2=O)NC[C@@H]1CNc1ccc(C(=O)N[C@@H](CCC(=O)[O-])C(=O)[O-])cc1 | -7.73 |
| OCCN1CCN(CCCN2c3ccccc3Sc3ccc(Cl)cc32)CC1 | 84.7 |
| CC(C)(C)NCc1cc(Nc2ccnc3cc(Cl)ccc23)c2c(c1O)CCCC2 | 11.2 |
| CN(C)CCc1c[nH]c2ccc(Cn3cncn3)cc12 | -5.8 |
| C=CC1=C(C)c2cc3[nH]c(cc4nc(cc5[nH]c(cc1n2)c(C)c5CCC(=O)O)C(CCC(=O)OC)=C4C)[C@@]1(C)C3=CC=C(C(=O)OC)[C@H]1C(=O)OC | -1.93 |
| CCC(CC)Nc1cc(C)nc(Oc2c(C)cc(C)cc2C)c1C | 0.31 |
| Oc1cc(Cl)ccc1Oc1ccc(Cl)cc1Cl | -5.79 |
| C=C1/C(=C\C=C2/CCC[C@]3(C)[C@@H]([C@H](C)CCCC(C)(C)O)CC[C@@H]23)C[C@@H](O)C[C@@H]1O | -1.95 |
| Cc1cc(C(=O)Nc2cc(Oc3ccc4nc(NC(=O)C5CC5)cn4n3)ccc2C)n(C)n1 | 0.15 |
